Measured values from PubChem BioAssay AID2546 (National Center for Advancing Translational Sciences (NCATS), 2010).
The whole screen tested about 310,000 compounds, of which about 11,000 (3.5%) were called active. The inconclusive results got no clear call from the source; some entries with a clear call stand among them for comparison. Calls come from the whole dose curve; as a rule, active = well fitted inhibition curve with a large enough effect; inconclusive = small, poorly fitted or top-dose-only effect, or effect the other way; inactive = flat fitted curve, though single readings scatter. No potency is given beside an inconclusive call; the fits are too rough.

assay: VP16 counterscreen qHTS for inhibitors of ROR gamma transcriptional activity; conditions: Drosophila S2 Gal4-VP16 UAS-luciferase, luminescence, 20 h; activity, negative = inhibition: at 53.6 µM (top of the series);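 note: Gal4-VP16 expression switched on by copper sulfate through the metallothionein promoter; nearly all actives have a fitted effect of over 50% in size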
% is set by controls: 0 for no effect and ±100 for the full control effect; potency is the fitted concentration of half-maximal effect; tags give direction and shape of the fitted curve.

For `c1ccc(-c2nc(-c3ccco3)n3ccccc23)cc1`, which Potency is on record?
The Potency was inconclusive [inhibitor, single point].

For `CCOc1cc(-c2nc3ccccc3s2)ccc1O`, which “activity, negative = inhibition” value is on record?
Its value is inactive: 0.937%.

For `Cc1cc(-c2n[nH]c(=S)n2/N=C/C(Br)=C/c2ccccc2)n[nH]1`, which Potency is on record?
The Potency was active: 11.2 µM.

For `Clc1ccc2nc(CSc3ccccc3)cn2c1`, which Potency is on record?
Its Potency is inconclusive [inhibitor, single point].

For `Cc1ccccc1CN(C)C(C)C(=O)Nc1ccccc1F` (stereo unspecified), which Potency is on record?
Its Potency is inconclusive [inhibitor, single point].

Which “activity, negative = inhibition” value does the source give for `COc1ccc(-n2c(SCC(N)=O)nc3nc4c(cc3c2=O)COC(C)(C)C4)cc1` here?
The value was inactive: 1.88%.

Which Potency does the source give for `CCOC(=O)c1ccc(NC(=O)c2cccc(S(=O)(=O)N3c4ccccc4CC3C)c2)s1` (stereo unspecified) here?
The Potency was inconclusive [inhibitor, single point].

Which Potency does the source give for `Cc1ccc(C)c(OCC(=O)Nc2ccncc2)c1` here?
The Potency was inconclusive [inhibitor, single point].

With `C=CCn1c(-c2ccc3ncccc3c2)n[nH]c1=S` as the compound, how does the Potency read?
The Potency was inconclusive [inhibitor, single point].

Which “activity, negative = inhibition” value does the source give for `COc1ccc(C/C(=N\OC(C)=O)c2ccc(OC)cc2)cc1` here?
The value was inactive: -5.63%.

Which Potency does the source give for `O=C1c2ccccc2C(=O)C12OC2c1ccc(Cl)cc1Cl` (stereo unspecified) here?
The Potency was inconclusive [inhibitor, single point].

For `CC(C)N(Cc1ccccc1)C(=S)Nc1ccccc1F`, which “activity, negative = inhibition” value is on record?
The value was inactive: 0.758%.

Which “activity, negative = inhibition” value does the source give for `Cc1cc(CNC(=O)COc2ccc(F)cc2)c2ccccc2n1` here?
Its value is inactive: -16.5%.

For `CCCn1c(N)c(C(=S)NC(=O)C2CC2)c(=O)n(C)c1=O`, which Potency is on record?
The Potency was active: 3.98 µM.

For `CCn1c(NC(=O)c2cccc(Cn3cc(Cl)cn3)c2)nc2ccccc21`, which Potency is on record?
Its Potency is active: 2 µM.

For `NC(=O)c1cccnc1Nc1cccc([N+](=O)[O-])c1`, which Potency is on record?
The Potency was inconclusive [activator, full curve].

With `CN1CCN(C(=S)NC(=O)/C=C/c2ccccc2)CC1` as the compound, how does the Potency read?
The Potency was inconclusive [inhibitor, single point].

With `COc1cccc(-c2cncnc2NCc2ccccc2)c1` as the compound, how does the “activity, negative = inhibition” value read?
The value was inactive: -4.42%.

Which Potency does the source give for `Cc1cccc(NC(=O)N2CCCCCC2)c1` here?
The Potency was inconclusive [activator, partial curve].

Which Potency does the source give for `CC(C)N(CCc1ccncc1)C(=S)Nc1cccc(Cl)c1` here?
The Potency was inconclusive [inhibitor, single point].

For `CCCn1c(SCN2C(=O)c3ccccc3C2=O)nc2cc(Cl)ccc2c1=O`, which Potency is on record?
Its Potency is inconclusive [inhibitor, single point].

For `Oc1ccc(COCc2ccccc2)c2cccnc12`, which Potency is on record?
The Potency was inconclusive [inhibitor, single point].

For `Cc1ccc(N=C2NC(=O)/C(=C/c3cn(C)c4ccccc34)S2)cc1C`, which Potency is on record?
The Potency was inconclusive [inhibitor, single point].

With `C/C(=C\C(=O)Nc1nccs1)c1ccccc1` as the compound, how does the Potency read?
The Potency was active: 11.2 µM.

For `CCn1cc(CNCc2cn(C)nc2-c2ccc(C3CCCCC3)cc2)cn1`, which Potency is on record?
Its Potency is inconclusive [inhibitor, single point].

With `S=C(c1ccc[nH]1)N1CCOCC1` as the compound, how does the Potency read?
Its Potency is inconclusive [inhibitor, single point].

With `Cc1ccc(C2=Nc3ccc(Br)cc3C(c3ccncc3)=NN2)cc1` as the compound, how does the “activity, negative = inhibition” value read?
Its value is inactive: -9.94%.

For `CCCCCCCCNC(=O)C(CCC(=O)OCc1ccccc1)NC(C)=O` (stereo unspecified), which “activity, negative = inhibition” value is on record?
The value was inactive: -8.37%.

For `O=C(O)c1c(-c2ccccc2)c2oc3ccccc3c2[nH]c1=O`, which Potency is on record?
The Potency was inconclusive [inhibitor, single point].

With `CC[C@@]1([C@@H]2O[C@@H]([C@H]3O[C@@](O)(CO)[C@H](C)C[C@@H]3C)C[C@@H]2C)CC[C@@H]([C@]2(C)CCC3(C[C@H](O)[C@@H](C)[C@@H]([C@@H](C)[C@@H](OC)[C@H](C)C(=O)O)O3)O2)O1` (stereo partly specified) as the compound, how does the Potency read?
Its Potency is inconclusive [inhibitor, full curve, poor fit].

Which “activity, negative = inhibition” value does the source give for `CCCCN(C)C(=O)c1cn(-c2cccc(OC)c2)c(=O)c2ccccc12` here?
Its value is inactive: 0.284%.

For `S=c1[nH]nc(C23CC4CC(CC(C4)C2)C3)n1Cc1ccco1`, which Potency is on record?
The Potency was active: 11.2 µM.

For `COc1cc2oc(=O)cc(-c3ccc(-c4ccc(O)cc4)cc3)c2c(OC)c1OC`, which Potency is on record?
The Potency was inconclusive [inhibitor, partial curve].

Which Potency does the source give for `O=C(N/N=C/c1cn(Cc2ccccc2)c2ccccc12)c1cccnc1` here?
Its Potency is active: 8.91 µM.

For `CC(=O)N1N=C(c2ccc(C)cc2)CC1c1ccco1` (stereo unspecified), which Potency is on record?
Its Potency is inconclusive [activator, full curve].

Which Potency does the source give for `O=C(O)c1ccc(C2CCCCC2)cn1` here?
Its Potency is inconclusive [inhibitor, single point].

Which Potency does the source give for `O=C(COC(=O)c1ccc2c(c1)C(=O)N(c1cccc3ncccc13)C2=O)c1ccc(Cl)cc1` here?
Its Potency is inconclusive [inhibitor, single point].

With `CN(c1ccccc1)P(=O)(N(C)c1ccccc1)N(C)c1ccccc1` as the compound, how does the Potency read?
Its Potency is inconclusive [inhibitor, single point].

Which Potency does the source give for `C=CCNC(=S)N(CC)c1cccc2ccccc12` here?
The Potency was inconclusive [inhibitor, partial curve].

Which Potency does the source give for `CCOC(=O)c1[nH]c2ccc(F)cc2c1NC(=O)CN1CCN(C/C=C/c2ccccc2)CC1` here?
Its Potency is inconclusive [inhibitor, single point].

Which Potency does the source give for `O=C(CN1C(=O)c2ccccc2C1=O)NCC(=O)OCC(=O)c1ccc(Cl)cc1` here?
Its Potency is inconclusive [activator, single point].

With `Cc1ccc(NC(=O)c2cccc(N(C)C)c2)cc1NC(=O)c1ccc(O)cc1` as the compound, how does the Potency read?
The Potency was inconclusive [inhibitor, single point].

Which Potency does the source give for `COc1ccccc1NC(=O)c1c(Nc2ccccc2F)sc(C(=O)Nc2cccc(Cl)c2)c1N` here?
Its Potency is inconclusive [inhibitor, single point].

With `Nc1ccccc1N=Nc1ccccc1N` as the compound, how does the Potency read?
The Potency was inconclusive [inhibitor, partial curve].

Which “activity, negative = inhibition” value does the source give for `Cn1cc(CN2CCC(C(=O)Nc3cccc(-c4cscn4)c3)CC2)cn1` here?
Its value is inactive: -5.83%.

Which Potency does the source give for `CCCCOc1ccc(/C=N/NC(=O)c2csc(C)c2C)cc1` here?
The Potency was inconclusive [inhibitor, single point].
